Values marked as one replicate rest on one cluster of the flow cell; about a third of the high ones do not repeat.
System: ATP
Assay: switch fluorescence ratio, 500 uM ATP over buffer (Cy3 cluster intensity, sum of 5 cycles each) (fold (ratio)); higher = stronger signal-on switching upon ATP binding; sequences stand for … in TCGTCGGCAGCGTCAGATGTGTATAAGAGACAGTTTTTTTTTTTTTTTTTTTTTTTTT…TC
Details: aptamer strand: ATP DNA aptamer (quencher-CACCTGGGGGAGTATTGCGGAGGAAGG + anchor), 100 nM annealed; ATP concentration: 500 uM; one replicate
How it was run: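 The quencher-labelled ATP aptamer, at 100 nM, was annealed to Cy3-labelled switching-strand clusters on a modified Illumina MiSeq flow-cell. The clusters were imaged in selection buffer, then after 15 min with 500 uM ATP at 22 °C, and this buffer/ATP cycle ran five times with NaOH stripping and re-annealing between runs. Per-cluster fluorescence ratios, summed target-cycle over summed buffer-cycle Cy3 intensity, were averaged per switch-domain sequence. Clusters outside 100-1000 RFU were excluded.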
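Note: ATP exposure 15 min at 22 °C before imaging.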

Sequence TCTTAAGGTT has a switch fluorescence ratio of 0.978.

Sequence GGATGCCTTA has a switch fluorescence ratio of 1.

TAAGTCCGCG gave a switch fluorescence ratio of 1.1.

For GTTCGTCCGT, the switch fluorescence ratio was 1.05.

In the case of GGATAGTAGC, the switch fluorescence ratio is reported as 1.03.

With TCCGGTAAAG the switch fluorescence ratio was 1.02.

Work on TGCGTGTCAG yielded a switch fluorescence ratio of 0.997.

CTGTTATCG gave a switch fluorescence ratio of 0.966.

Sequence GAGCTGTTTT has a switch fluorescence ratio of 1.03.

AATCTATGGT showed a switch fluorescence ratio of 0.979.

CTGGACGTG showed a switch fluorescence ratio of 0.952.

Work on GACTATCATA yielded a switch fluorescence ratio of 1.1.

TCCGCTTTGT was tested, and the switch fluorescence ratio was 1.03.

Sequence GGTTAAATAC has a switch fluorescence ratio of 1.39.

For GAGTAGGATA, the switch fluorescence ratio was 0.996.

In the case of CAAGACAGCG, the switch fluorescence ratio is reported as 0.986.

Sequence TATGACTGG has a switch fluorescence ratio of 1.03.

GGGAAAAGC showed a switch fluorescence ratio of 0.981.

Work on CGACCCCGAA yielded a switch fluorescence ratio of 1.12.

With TATCCGGCGG the switch fluorescence ratio was 1.01.

AGATAGTGTG showed a switch fluorescence ratio of 1.04.

CACCATAACC gave a switch fluorescence ratio of 1.13.

Work on TGGATTAGAA yielded a switch fluorescence ratio of 1.02.

GAGCGAGAGG showed a switch fluorescence ratio of 0.995.

Work on TGCGGTCCCG yielded a switch fluorescence ratio of 1.02.

Sequence ACGTGAGCGG has a switch fluorescence ratio of 0.967.

AGGCAAAGGA gave a switch fluorescence ratio of 1.

Work on CTAGCTGGCG yielded a switch fluorescence ratio of 0.917.

Work on TTTCCATATA yielded a switch fluorescence ratio of 1.11.

TAAATTTTAC showed a switch fluorescence ratio of 1.1.

In the case of CAATGAATGG, the switch fluorescence ratio is reported as 1.09.

TTTGCGGGAA gave a switch fluorescence ratio of 0.977.

In the case of CTTCGATTGT, the switch fluorescence ratio is reported as 0.977.

CCCTAATCAT showed a switch fluorescence ratio of 0.959.

TAATTATCTG gave a switch fluorescence ratio of 1.03.

In the case of ACATGCGCTG, the switch fluorescence ratio is reported as 1.02.

CTGAGTGAAT showed a switch fluorescence ratio of 1.19.

With AGCGTAGTGA the switch fluorescence ratio was 1.02.

Sequence AAATCTACTC has a switch fluorescence ratio of 1.03.

GATGGACCC was tested, and the switch fluorescence ratio was 1.03.

Work on GGCGAATCCG yielded a switch fluorescence ratio of 1.01.

GATTCACGCG was tested, and the switch fluorescence ratio was 1.02.

In the case of GAGGCTCCTT, the switch fluorescence ratio is reported as 0.991.

With TCGTGAAGC the switch fluorescence ratio was 1.01.

For ACGACGACAA, the switch fluorescence ratio was 5.3.

With GGTGTACTGT the switch fluorescence ratio was 1.02.

Work on GGTTGCGATA yielded a switch fluorescence ratio of 1.01.

Work on GGGGTCGTGC yielded a switch fluorescence ratio of 0.944.

Work on CGATATAGTT yielded a switch fluorescence ratio of 0.961.

TCTCGGCTAC gave a switch fluorescence ratio of 2.7.

GAGCATTATC was tested, and the switch fluorescence ratio was 1.56.

For CTGAGTGCTA, the switch fluorescence ratio was 1.16.

GCTTATGCGT showed a switch fluorescence ratio of 1.02.

CAGTAGTGCC was tested, and the switch fluorescence ratio was 0.99.

For ACACGGGCCC, the switch fluorescence ratio was 1.01.

In the case of GTTGCGGTT, the switch fluorescence ratio is reported as 0.953.

In the case of GGTTCCCGGT, the switch fluorescence ratio is reported as 1.

GGGACTGAG showed a switch fluorescence ratio of 0.997.

Work on TTGCATAAAA yielded a switch fluorescence ratio of 1.02.

With CTTACGTGGG the switch fluorescence ratio was 0.975.

GCATCATGAC was tested, and the switch fluorescence ratio was 1.07.

With TTAACGCCGA the switch fluorescence ratio was 0.977.

TACACTGTAC was tested, and the switch fluorescence ratio was 1.87.

With TAGAAGGGTA the switch fluorescence ratio was 0.983.

For TGGGGCTGCG, the switch fluorescence ratio was 1.05.

Sequence CTGGGGGTCC has a switch fluorescence ratio of 1.02.

CGTAGCTTG showed a switch fluorescence ratio of 1.05.

For TTAGACAACG, the switch fluorescence ratio was 0.947.

In the case of AATCACACAG, the switch fluorescence ratio is reported as 1.06.

For CCGAAACAG, the switch fluorescence ratio was 1.7.

GGCAGCTGCA gave a switch fluorescence ratio of 0.964.

For CCTTTAATTA, the switch fluorescence ratio was 0.995.

CCTGGAGTGC gave a switch fluorescence ratio of 1.1.

CCCAAGCCGT gave a switch fluorescence ratio of 1.04.

Sequence AAATTTGTAG has a switch fluorescence ratio of 0.987.

With CGTACAATAT the switch fluorescence ratio was 1.89.

TGCATTTTCC gave a switch fluorescence ratio of 1.04.

Sequence CCAGTTTCAC has a switch fluorescence ratio of 0.993.

Sequence GAAGGAGGAA has a switch fluorescence ratio of 0.988.

Work on CGAAATGTAT yielded a switch fluorescence ratio of 0.978.

With CGGAGGCACA the switch fluorescence ratio was 1.65.

Sequence CGACCCAGCC has a switch fluorescence ratio of 1.25.

AAGATATAGT showed a switch fluorescence ratio of 1.01.

TCTACGAGGG was tested, and the switch fluorescence ratio was 1.03.

TTTCGGGTTA was tested, and the switch fluorescence ratio was 0.998.

For CGCCAGGTAC, the switch fluorescence ratio was 2.62.

Work on GGCGTGAACA yielded a switch fluorescence ratio of 0.97.

With CATGTATATA the switch fluorescence ratio was 1.

With AGGAACGAGC the switch fluorescence ratio was 1.01.

With ACTTAGTATG the switch fluorescence ratio was 0.999.

Work on GAGTCGGGAT yielded a switch fluorescence ratio of 1.

Sequence CCAAGCATGA has a switch fluorescence ratio of 2.16.

TAATGGCATA gave a switch fluorescence ratio of 0.993.

GGCAAATTGG showed a switch fluorescence ratio of 1.

In the case of TGCCGTTGGC, the switch fluorescence ratio is reported as 0.957.

GCAAAGAACT gave a switch fluorescence ratio of 1.03.

GGATCTACTC was tested, and the switch fluorescence ratio was 1.06.

Work on AGGATGAGGG yielded a switch fluorescence ratio of 1.03.

TAACACGAGA gave a switch fluorescence ratio of 1.04.

Sequence ACCCATGGGG has a switch fluorescence ratio of 1.01.

Sequence CCGAGTGTTA has a switch fluorescence ratio of 1.2.

Sequence GAATTCTAGT has a switch fluorescence ratio of 1.01.

For AGTTTCTGCT, the switch fluorescence ratio was 1.02.

With GATATCATGG the switch fluorescence ratio was 1.08.

For AATCATCTCG, the switch fluorescence ratio was 1.07.

Sequence TCTGACGATC has a switch fluorescence ratio of 1.66.

In the case of AGGGGATGAT, the switch fluorescence ratio is reported as 0.999.

CAGATTTT was tested, and the switch fluorescence ratio was 0.97.

Work on TTCTTCGGGG yielded a switch fluorescence ratio of 1.65.

Sequence AGAACTGGAT has a switch fluorescence ratio of 1.18.

Work on CCATCTAACA yielded a switch fluorescence ratio of 0.982.

For TCCTAAAGGT, the switch fluorescence ratio was 1.08.

AGGTTCTAAC showed a switch fluorescence ratio of 1.08.

With CGTTCTGCCT the switch fluorescence ratio was 0.967.

Sequence AATGCCTAAA has a switch fluorescence ratio of 0.998.

With ATTTGTAAT the switch fluorescence ratio was 1.02.

Sequence GGTAGAGCAC has a switch fluorescence ratio of 1.

GTTGGGTCTA showed a switch fluorescence ratio of 1.01.

In the case of GTAGTTACGC, the switch fluorescence ratio is reported as 1.03.

TGACTACTTG showed a switch fluorescence ratio of 1.05.

CAACAAGTTT showed a switch fluorescence ratio of 1.02.

Work on CAGGCGGCTC yielded a switch fluorescence ratio of 1.01.

TGATCGACGC was tested, and the switch fluorescence ratio was 2.24.

For GATTGTAGAG, the switch fluorescence ratio was 0.998.

Sequence GACGGTGTCA has a switch fluorescence ratio of 1.

Work on TTAATCCGTT yielded a switch fluorescence ratio of 1.02.

Sequence GCTACTTGTG has a switch fluorescence ratio of 1.04.

In the case of ATGTTATAAT, the switch fluorescence ratio is reported as 0.986.

GGGAATTTCA showed a switch fluorescence ratio of 1.02.

TGGTCATACC was tested, and the switch fluorescence ratio was 0.983.

With TGGTACGGAA the switch fluorescence ratio was 1.13.

Work on CCTATGAAAC yielded a switch fluorescence ratio of 1.11.

AAACCTGCGG was tested, and the switch fluorescence ratio was 1.

TCCTAGTATT was tested, and the switch fluorescence ratio was 0.993.

ACGATAGCTC was tested, and the switch fluorescence ratio was 1.34.

TCTGCGTACG gave a switch fluorescence ratio of 1.03.

GCGGTTCGT was tested, and the switch fluorescence ratio was 1.02.

CGTTGGTTCG showed a switch fluorescence ratio of 1.02.

CCTACCACTT was tested, and the switch fluorescence ratio was 1.16.

TTATTAAGG was tested, and the switch fluorescence ratio was 0.958.

Sequence TTGGAACGGC has a switch fluorescence ratio of 1.02.

Sequence AATACTGACG has a switch fluorescence ratio of 1.16.

With GGGCGGGCGG the switch fluorescence ratio was 1.

TTGCTTTCGC showed a switch fluorescence ratio of 0.924.

For TTGGCTTGAG, the switch fluorescence ratio was 1.01.

For TCAGGGCTGC, the switch fluorescence ratio was 1.02.

Sequence ACGAGTGTTC has a switch fluorescence ratio of 1.05.

Work on TAAGTATGGG yielded a switch fluorescence ratio of 0.998.

TTGTAGAATC gave a switch fluorescence ratio of 1.

For GTATTAATTG, the switch fluorescence ratio was 1.05.

With TTCTATTCAA the switch fluorescence ratio was 1.08.

CTATCACCAT was tested, and the switch fluorescence ratio was 1.

CTGTAACTTG gave a switch fluorescence ratio of 0.991.

For GATTTGCGCG, the switch fluorescence ratio was 0.975.

In the case of CGTGTCAATG, the switch fluorescence ratio is reported as 0.972.

With GACAGGACAG the switch fluorescence ratio was 0.964.

With CGGTATGAGT the switch fluorescence ratio was 1.

From the supplement of paper PMC10126150
